The full ranking holds about 81,000 sequences; the median of “one-hybrid fitness for binding parS DNA” is about -0.17, and the highest 2% start at about 0.51. This is one part of the list.
B1: Caulobacter ParB omega fusion; a variant is named by its letters at X, in order, B8GW30 (parent)
chain: MESVVVGEPGMSEGRRGLGRGLSALLGEVDAAPAQAPGEQLGGSREAPIEILQRNPDQPRRTFREEDLEDLSNSIREKGVLQPILVRPSPDTAGEYQIVAGERAWRAAQRAGLKTVPIMVRELDDLAVLEIGIIENVQRADLNVLEEALSYKVLMEKFERTQENIAQTIGKSXSHVANXMRLLXLPDEVQSYLVSGELTAXHARAIAAAADPVALAKQIIEGGLSVRETEALARKAPNLSAGKSKGGRPPRVKDTDTQALESDLSSVLGLDVSIDHRGSTGTLTITYATLEQLDDLCNRLTRGI

Variants of: B1
Test: one-hybrid fitness for binding parS DNA (scaled: cognate 1, non-cognate 0); higher = stronger binding
Conditions: with parS DNA site
Method in brief: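 Selection: bacterial one-hybrid in E. coli USO, HIS3 reporter with the site 19 bp from the promoter, 48 hours at 37°C on M9-minus-histidine plus 0.1 mM IPTG and 5 mM 3-AT. Libraries were Caulobacter ParB with four randomised specificity codons, sequenced on Illumina before and after selection. Fitness is the rescaled log change in variant-to-wild-type read ratio, anchored to the cognate and non-cognate sites.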

| Variant | one-hybrid fitness for binding parS DNA |
| --- | --- |
| YCNA | ≤ 0.2 |
| GFTD | ≤ 0.2 |
| GIMA | ≤ 0.2 |
| RQLQ | ≤ 0.2 |
| VDVT | ≤ 0.2 |
| DHIR | ≤ 0.2 |
| IKHS | ≤ 0.2 |
| GGFT | ≤ 0.2 |
| TRVR | ≤ 0.2 |
| HNFC | ≤ 0.2 |
| SFFC | ≤ 0.2 |
| PTGT | ≤ 0.2 |
| GHTT | ≤ 0.2 |
| HSRE | ≤ 0.2 |
| ITYH | ≤ 0.2 |
| STHR | ≤ 0.2 |
| KGMR | ≤ 0.2 |
| QMMW | ≤ 0.2 |
| AIND | ≤ 0.2 |
| CIIW | ≤ 0.2 |
| SVRM | ≤ 0.2 |
| AMQS | ≤ 0.2 |
| WSQT | ≤ 0.2 |
| LYPV | ≤ 0.2 |
| VEAT | ≤ 0.2 |

| Variant | one-hybrid fitness for binding parS DNA |
| --- | --- |
| HIRL | ≤ 0.2 |
| FPHV | ≤ 0.2 |
| KCVL | ≤ 0.2 |
| TEGR | ≤ 0.2 |
| LSFV | ≤ 0.2 |
| YTHS | ≤ 0.2 |
| HPDC | ≤ 0.2 |
| RTIY | 0.418 |
| CQGC | ≤ 0.2 |
| ISDP | ≤ 0.2 |
| EFRL | ≤ 0.2 |
| YCRV | ≤ 0.2 |
| PTTT | ≤ 0.2 |
| QDEV | ≤ 0.2 |
| FPDQ | ≤ 0.2 |
| WRFR | ≤ 0.2 |
| IPVG | ≤ 0.2 |
| RWSH | ≤ 0.2 |
| TTQV | ≤ 0.2 |
| IHGR | ≤ 0.2 |
| QVIN | ≤ 0.2 |
| DSVC | ≤ 0.2 |
| QMTK | ≤ 0.2 |
| MRGF | ≤ 0.2 |
| QTYA | ≤ 0.2 |

| Variant | one-hybrid fitness for binding parS DNA |
| --- | --- |
| RIYR | ≤ 0.2 |
| RALC | 0.968 |
| LRGR | ≤ 0.2 |
| LASK | ≤ 0.2 |
| GMYE | ≤ 0.2 |
| EASW | ≤ 0.2 |
| YKDT | ≤ 0.2 |
| QLCC | ≤ 0.2 |
| ASDY | ≤ 0.2 |
| ICKS | ≤ 0.2 |
| CKLT | ≤ 0.2 |
| DMPW | ≤ 0.2 |
| RKCC | 0.908 |
| MTPY | ≤ 0.2 |
| PKCV | ≤ 0.2 |
| TVTV | ≤ 0.2 |
| KHKG | ≤ 0.2 |
| SWYE | ≤ 0.2 |
| CSLC | ≤ 0.2 |
| MHPW | ≤ 0.2 |
| RYIY | 0.352 |
| VKVS | ≤ 0.2 |
| SSLG | ≤ 0.2 |
| GIIW | ≤ 0.2 |
| SIHT | ≤ 0.2 |

| Variant | one-hybrid fitness for binding parS DNA |
| --- | --- |
| RPWI | ≤ 0.2 |
| IHNR | ≤ 0.2 |
| VIRD | 0.202 |
| TEKG | ≤ 0.2 |
| FPPH | ≤ 0.2 |
| RHCQ | ≤ 0.2 |
| TEGS | ≤ 0.2 |
| CNRM | ≤ 0.2 |
| TSAF | ≤ 0.2 |
| QIFR | ≤ 0.2 |
| RHFW | ≤ 0.2 |
| RAQM | 0.31 |
| IHVS | ≤ 0.2 |
| AFVL | ≤ 0.2 |
| NQPR | ≤ 0.2 |
| AVLT | ≤ 0.2 |
| QKKS | ≤ 0.2 |
| RTDQ | ≤ 0.2 |
| IGHL | ≤ 0.2 |
| LINS | ≤ 0.2 |
| PADI | ≤ 0.2 |
| ARRI | ≤ 0.2 |
| PCHL | ≤ 0.2 |
| PFLM | ≤ 0.2 |
| HAYN | ≤ 0.2 |

| Variant | one-hybrid fitness for binding parS DNA |
| --- | --- |
| MRVC | ≤ 0.2 |
| CKRS | ≤ 0.2 |
| HLNC | ≤ 0.2 |
| TCPE | ≤ 0.2 |
| TCNR | ≤ 0.2 |
| FTHW | ≤ 0.2 |
| RYWE | ≤ 0.2 |
| NSLY | ≤ 0.2 |
| NKIY | ≤ 0.2 |
| LNFM | ≤ 0.2 |
| AGDS | ≤ 0.2 |
| CSAM | ≤ 0.2 |
| EINR | ≤ 0.2 |
| NNET | ≤ 0.2 |
| AVGI | ≤ 0.2 |
| NKCR | ≤ 0.2 |
| AAMC | ≤ 0.2 |
| IMLS | ≤ 0.2 |
| GNDH | ≤ 0.2 |
| LTQR | ≤ 0.2 |
| KMVR | ≤ 0.2 |
| PHPS | ≤ 0.2 |
| FWRV | ≤ 0.2 |
| AAKI | ≤ 0.2 |
| YAKI | ≤ 0.2 |

| Variant | one-hybrid fitness for binding parS DNA |
| --- | --- |
| RRWK | ≤ 0.2 |
| LKLS | ≤ 0.2 |
| STWQ | ≤ 0.2 |
| QQTV | ≤ 0.2 |
| TYAV | ≤ 0.2 |
| TLRF | ≤ 0.2 |
| AYYT | ≤ 0.2 |
| PCPY | ≤ 0.2 |
| DPKC | ≤ 0.2 |
| DFRC | ≤ 0.2 |
| RRNS | 0.646 |
| PAAD | ≤ 0.2 |
| RYWN | 0.422 |
| WAVS | ≤ 0.2 |
| TESA | ≤ 0.2 |
| YVPM | ≤ 0.2 |
| NAMS | ≤ 0.2 |
| AIPV | ≤ 0.2 |
| AVNF | ≤ 0.2 |
| GIDK | ≤ 0.2 |
| NNSK | ≤ 0.2 |
| LYNS | ≤ 0.2 |
| PTTE | ≤ 0.2 |
| NMRY | ≤ 0.2 |
| FSRY | ≤ 0.2 |

| Variant | one-hybrid fitness for binding parS DNA |
| --- | --- |
| ADDQ | ≤ 0.2 |
| VRGA | ≤ 0.2 |
| WAYC | ≤ 0.2 |
| SVKY | ≤ 0.2 |
| RYDS | 0.987 |
| VSIS | ≤ 0.2 |
| PWMR | ≤ 0.2 |
| RWYI | ≤ 0.2 |
| HWRK | ≤ 0.2 |
| RSNQ | ≤ 0.2 |
| QIVD | 0.241 |
| ACCM | ≤ 0.2 |
| HYAI | ≤ 0.2 |
| CKDT | ≤ 0.2 |
| SEYQ | ≤ 0.2 |
| CMST | ≤ 0.2 |
| AVCL | ≤ 0.2 |
| YSTP | ≤ 0.2 |
| RNVE | ≤ 0.2 |
| ESVG | ≤ 0.2 |
| NHSM | ≤ 0.2 |
| ADNF | ≤ 0.2 |
| HRDT | ≤ 0.2 |
| LREV | ≤ 0.2 |
| YSQL | ≤ 0.2 |

| Variant | one-hybrid fitness for binding parS DNA |
| --- | --- |
| WGPC | ≤ 0.2 |
| KMRC | ≤ 0.2 |
| VTQL | ≤ 0.2 |
| AKDQ | ≤ 0.2 |
| EPYR | ≤ 0.2 |
| ARDD | ≤ 0.2 |
| GIPG | ≤ 0.2 |
| RSTY | 0.456 |
| SLVD | ≤ 0.2 |
| VAWG | ≤ 0.2 |
| ACTY | ≤ 0.2 |
| ASAR | ≤ 0.2 |
| QYGV | ≤ 0.2 |
| TVIA | ≤ 0.2 |
| NESF | ≤ 0.2 |
| CGDW | ≤ 0.2 |
| QCRS | ≤ 0.2 |
| RQND | 0.221 |
| EAFM | ≤ 0.2 |
| WPYG | ≤ 0.2 |
